# Data as given in paper PMC5515408.
# This is one part of the list. At the low end of the ranking the order means little.
# System: MYC (p64) + MAX (p21), in MYC:MAX
# Test: protein-binding microarray (anti-MAX antibody)
# Conditions: PBM: 15 mM Tris-HCl pH 7.5, 100 mM KCl, 0.075% NP40, 7.5 mM beta-mercaptoethanol, 375 ng/ul BSA, 8 ng/ul poly(dA-dT):(dA-dT), 550 ng complex, 60 min, room …; high values mean tight binding; double strand, one strand shown; sequences stand for … in CCGGC…TTAATAGCTAAGATTACTATATCGACG
row,Sequence,binding signal (log2 normalized fluorescence)
1,CACACCGTATAT,0.472
2,TGAAAAAGAGTA,-0.065
3,TGAGGAGGAGTA,-0.0112
4,TGAACCCCTGTA,0.199
5,TGATGTTAGGTA,0.122
6,ATGCACGTGGTA,0.877
7,GGACACATGGTA,0.734
8,TGACAACTCGTA,0.0809
9,TGAATAAGAGTA,-0.102
10,TGGCCCGTGATA,0.0203
11,TGACCTATAGTA,0.0626
12,TGACGTAGAGTA,-0.111
13,TGAGACACGGTA,0.339
14,TGAGGGCACGTA,0.196
15,TGAATATAGGTA,-0.0789
16,TTAAACCGGGTT,0.0388
17,TGATGCTACGTA,0.0122
18,ATAGTATACAAT,0.141
19,TGACGCGACGTA,0.222
20,TGACAGTCAGTA,0.207
21,TGACTTAGAGTA,0.00649
22,TGAGTCTGAGTA,-0.223
23,TGAAACGACGTA,0.186

row,Sequence,binding signal (log2 normalized fluorescence)
1,TGACCGTGAGTA,0.028
2,TGATAAGAGGTA,0.00604
3,TGAACGGGCGTA,-0.108
4,TGATAACATGTA,0.446
5,TGACTGCCCGTA,0.0477
6,TGAATGTCGGTA,0.302
7,TGATACAAAGTA,-0.024
8,TGACGAACCGTA,0.159
9,TGATTACCCGTA,0.0842
10,TGAACTACAGTA,0.0813
11,TCCGACGTGGTA,0.53
12,TGAGGGTTGGTA,0.0373
13,TGCCACGTAGGA,0.344
14,TGATCGCGAGTA,0.326
15,TTACACGTGGTC,0.679
16,TGATCCGTCGTA,-0.107
17,TGAGAGTGAGTA,-0.192
18,TGACTAGTTGTA,-0.0321
19,TGAGTGCCTGTA,0.232
20,TGAGTACAGGTA,0.00262
21,TGACTTAGTGTA,-0.0646
22,TGACATACCGTA,0.177
23,TGATATAAAGTA,-0.32

row,Sequence,binding signal (log2 normalized fluorescence)
1,TGAGATCTGGTA,-0.301
2,TGACCCTTGGTA,0.0687
3,TGAGTCACCGTA,0.151
4,TGACATTCCGTA,0.27
5,TGATCCTATGTA,-0.00579
6,TGATGCTCTGTA,0.0578
7,TGAGGGGGTGTA,0.809
8,TGAGATGTGGTA,0.149
9,TGATGGATGGTA,0.171
10,TGACCAGTAGTA,0.149
11,TGAGGGCGCGTA,0.131
12,TGACCGTGCGTA,0.245
13,TGACACACGGTC,0.354
14,TGAATCGATGTA,0.045
15,TGAAACCCTGTA,0.16
16,TGACCTTGAGTA,0.204
17,AAGCACGTGGTA,0.835
18,TGACTAATCGTA,-0.127
19,TGACTGACAGTA,-0.0154
20,GAACCCACTGCT,0.408
21,TGAACATGCGTA,0.323
22,TGCTTCATGGTT,0.301
23,TGATCGCGTGTA,0.492

row,Sequence,binding signal (log2 normalized fluorescence)
1,TGAGATTAGGTA,-0.166
2,TGATAAAGGGTA,-0.000515
3,TGAATGCACGTA,0.413
4,TGAAAGAGCGTA,-0.0273
5,TGATGGGCAGTA,0.0215
6,TTCGACGTGGTA,0.34
7,TGAACCCCGGTA,0.218
8,GGACACGTAGTA,0.369
9,TGAAGGGACGTA,-0.148
10,TGACACGTAGCA,0.484
11,TGATCGTTAGTA,-0.117
12,TGAACCGGCGTA,0.0721
13,TGACACGTCCTA,0.405
14,TGAGTGGCCGTA,0.273
15,TGAGAGCTTGTA,-0.0443
16,TGACACGGTGTA,0.228
17,TGATGTTTGGTA,0.0673
18,TAGAGTTTACCG,-0.222
19,TGACGATACGTA,0.106
20,TGACAAATGGTA,0.28
21,AGACCCGTGGTA,0.277
22,TGAACAACGGTA,0.204
23,TGACCTGCCGTA,0.223

row,Sequence,binding signal (log2 normalized fluorescence)
1,TGAATTCGGGTA,-0.0384
2,TTACATGTGGTA,0.625
3,TGAATACGAGTA,0.238
4,TGAATAAAAGTA,-0.065
5,TGATACCCGGTA,0.0826
6,TGAGATCATGTA,0.165
7,CGACAGCCGGTT,-0.0407
8,TGATACGTGTAA,0.291
9,TGAATGCCGGTA,0.0509
10,TGATTCGCAGTA,-0.0563
11,TGACACGCAGTA,0.458
12,TGAAGGCAAGTA,-0.0158
13,TGATTTCGGGTA,-0.124
14,TGATGAATTGTA,-0.0305
15,TGACATGTGGCC,0.558
16,TGATTGATCGTA,-0.157
17,TGAAAGACGGTA,-0.00169
18,TGAAATGCCGTA,0.0989
19,TGAAAGTCCGTA,-0.0864
20,TGACGATGTGTA,0.226
21,TGACACGCCATA,0.441
22,TGAGTCAAAGTA,-0.0966
23,AGACACGTGGTA,0.798

row,Sequence,binding signal (log2 normalized fluorescence)
1,TGATCCCTAGTA,-0.123
2,TGAACAGGAGTA,0.198
3,TGAGCAGGAGTA,0.118
4,TGAGCGCTTGTA,0.254
5,TGAACTAATGTA,-0.00423
6,TGACGTCGGGTA,-0.243
7,TGAGGAGTCGTA,-0.0537
8,TGATACAGTGTA,0.0568
9,TGATTGCTAGTA,-0.0538
10,TGAGTGTCCGTA,0.261
11,TGATAGCAAGTA,-0.0344
12,TGACGCTACGTA,0.0734
13,AAATACGTGGTA,0.556
14,TGAGGCATAGTA,-0.0779
15,TGATCTCAAGTA,0.0448
16,TGATCCATTGTA,0.0162
17,TGACGACGAGTA,0.082
18,TGAGCAATCGTA,0.0406
19,TGAGACGAGGTA,0.0194
20,TGAGACCCGGTA,-0.0338
21,TGACCGGATGTA,0.246
22,TGAAGTAGAGTA,-0.0982
23,TGAATTTAAGTA,-0.0297
